Out of some 52,000 compounds screened, about 4,300 (8.3%) were called active. No stated cut-off is given here; in the data, active means survival mostly below about 52% (no sharp cut-off); inactive means mostly above about 56%. This is one part of the list.

This assay concerns DeltatarO mutant. Nature of the assay: S. aureus survival, RN4220 and DeltatarO strains – OD600, teichoic acid synthesis inhibitors, primary screen (AID 463173). The settings on record: S. aureus RN4220 wild type/DeltatarO growth, OD600, 18 h, active compounds read low, screened at 18.75 µg/mL (by protocol).
In the case of `O=C(COc1ccc(F)cc1)Nc1ccc2nc(SCCOc3ccccc3)sc2c1`, the survival is inactive: 87%.

On to `COc1cccc(NC(=O)Cn2c(=O)n(Cc3ccc(C(=O)NCc4ccc(C)cc4)cc3)c(=O)c3ccccc32)c1`, for which the survival is inactive: 80%.

As to `COc1ccc(Cl)cc1C(=O)NCCS(=O)(=O)N1CCN(c2ccccc2OC)CC1`, the survival is inactive: 80%.

Turning to `COCCNC(=O)CN1CCC(NC(=O)Nc2ccc(C(F)(F)F)cc2)CC1`, the survival was inactive: 92%.

With `CCOc1ccc(Cn2c(CNS(=O)(=O)c3ccc(C(C)(C)C)cc3)nc3cccnc32)cc1`, the survival was inactive: 85%.

On to `CCOC(=O)c1c(C)n(-c2ccccc2)c2ccc(OC(=O)c3c(F)cccc3F)cc12`, for which the survival is inactive: 67%.

For the compound `COc1ccc(CCNC(=O)C2c3ccccc3C(=O)N2Cc2ccccc2)cc1OC` (stereo not given), the survival was inactive: 90%.

As for `CCOc1ccc(CNC(=O)C2=Cc3cccc(OC)c3OC2)cc1`, the survival was inactive: 87%.

`CCCC(C)C(=O)Nc1nnc(C(F)(F)F)s1` (stereo not given): the survival was inactive: 103%.

With `O=C(Cc1ccc(NC(=O)N2CCSc3ncccc32)cc1)NCc1cccc(Cl)c1`, the survival was inactive: 65%.

As to `CC(=O)NC1(c2ccccc2F)CCN(CC(=O)N2CCN(C(=O)c3ccco3)CC2)CC1`, the survival was inactive: 103%.

Consider `Cc1cccc(C(=O)NCc2nc3ccccc3n2Cc2ccccc2Cl)c1`, for which the survival was inactive: 106%.

As to `CCOc1ccccc1CNC(=O)c1oc2c(c1C)-c1nn(Cc3cccc(Cl)c3)cc1CC2`, the survival is inactive: 70%.

As for `Cc1ccc2c(=O)c(C(=O)c3ccc(Cl)cc3)cn(CC(=O)Nc3ccc4c(c3)OCCO4)c2n1`, the survival is inactive: 67%.

Consider `O=C(Nc1cccc(OCc2cc(=O)n3ccccc3n2)c1)Nc1cccc(C(F)(F)F)c1`, for which the survival was active: -4%.

As to `Cc1ccc(NC(=O)C2CCCN2S(=O)(=O)c2cccc3cccnc23)c(C)c1` (stereo not given), the survival is inactive: 70%.

For `COc1ccc(CNC(=O)C2CCN(C(=O)N3CCOc4ccc(Cl)cc43)CC2)cc1`, the survival is inactive: 92%.

As for `Cc1cc(Nc2ccccc2O)nc(C)n1`, the survival is inactive: 67%.

Regarding `COc1ccc(NC(=O)CCCN2C(=O)CCn3nc(-c4cn(C)c5ccccc45)cc32)cc1`, the survival is inactive: 77%.

Turning to `Cc1ccc(C)c(S(=O)(=O)n2nc(C)c(S(=O)(=O)N3CCCCCC3)c2C)c1`, the survival is inactive: 88%.

As for `Cc1ccccc1OCC(=O)Nc1ccc2nc(SCC(=O)N3CCOCC3)sc2c1`, the survival is inactive: 77%.

`O=C(CN1C(=O)C2(SCC(=O)N2c2ccc(F)c(F)c2)c2ccccc21)Nc1cccc(Cl)c1` (stereo not given): the survival was inactive: 83%.

On to `O=C(CCC1CCCCC1)Nc1nccs1`, for which the survival was inactive: 78%.

Turning to `CCOc1ccc(NC(=O)CCNS(=O)(=O)c2cccs2)cc1`, the survival is inactive: 51%.

In the case of `Cc1ccc(-c2nn(CCC(N)=O)c(=O)c3ccccc23)cc1`, the survival was inactive: 68%.

`COc1c(C)cc(NS(=O)(=O)c2ccc3c(c2)OCCO3)cc1C`: the survival was inactive: 72%.

With `Cc1cccc(NC(=O)C2CCN(S(=O)(=O)c3c(C)noc3/C=C/c3ccco3)CC2)c1`, the survival was inactive: 65%.

Regarding `CCN(Cc1ccccc1)S(=O)(=O)c1ccc(F)c(C(=O)Nc2cc(C)ccc2OC)c1`, the survival was inactive: 98%.

Regarding `C=CCn1c(N)c(-c2nc3ccccc3[nH]2)sc1=S`, the survival is inactive: 43%.

In the case of `O=C(NC1CC1)C1C2C=CC3(O2)C1C(=O)N(Cc1ccccc1)C3C(=O)NC1CCCC1` (stereo not given), the survival was inactive: 66%.

Regarding `Cc1cccc(C)c1-n1ncc(C(=O)NCCN2CCN(C)CC2)c1C1CCN(C(=O)OC(C)(C)C)CC1`, the survival was active: 8%.

Consider `CCOC(=O)c1cnc2ccc(OC)cc2c1Nc1cccc(C(C)=O)c1`, for which the survival is active: 9%.

In the case of `Cc1ccc(Cl)cc1NC(=O)N1CCC(CN2CCc3ccccc3C2)CC1`, the survival is inactive: 86%.

`CSC1=C(C#N)C(c2ccc(Cl)cc2)CC(=O)N1` (stereo not given): the survival was inactive: 75%.

Consider `CCC(Sc1nc2ncccc2[nH]1)C(=O)Nc1ccccc1F` (stereo not given), for which the survival was inactive: 112%.

Turning to `COc1ccc2c(CNCc3cccs3)c(C(=O)O)n(Cc3ccccc3C)c2c1`, the survival is inactive: 99%.

On to `O=C(O)CNC(=O)OCc1ccccc1`, for which the survival was inactive: 97%.

Consider `O=C(CSc1nc2c([nH]c3ccccc32)c(=O)n1-c1ccc(F)cc1)Nc1ccc2c(c1)OCCO2`, for which the survival was inactive: 70%.

On to `CC1(C)CC(=O)C=C(NCC2CCNCC2)C1`, for which the survival was inactive: 95%.

For `CCS(=O)(=O)N1CCc2cc(C(=O)NCc3ccc(C)cc3)ccc21`, the survival was inactive: 82%.

Regarding `CCOC(=O)c1nnn(-c2nonc2N)c1-c1ccccc1`, the survival is inactive: 73%.

As to `CCC(Cn1nnc2ccccc2c1=O)NC(=O)Nc1ccccc1Cl` (stereo not given), the survival was inactive: 85%.

For `CCCCOc1ccc(C(=O)Nc2ccc3c(c2)N(C(C)=O)CCC3)cc1`, the survival is inactive: 85%.

With `Cn1cccc1-c1cc2n(n1)CCC(=O)N2CC(=O)Nc1ccc(F)cc1Cl`, the survival is inactive: 88%.

With `CCOc1cc(CNc2ccc(O)cc2)cc(Cl)c1OCc1ccccc1`, the survival is active: 1%.

With `COC(=O)c1ccc2c(=O)n(CCCCCC(=O)N3CCN(c4cccc(C)c4C)CC3)c(=O)[nH]c2c1`, the survival is inactive: 90%.

As to `CN1CCN(C(=O)/C(=C/c2cccs2)NC(=O)c2cccs2)CC1`, the survival was inactive: 74%.

`Cc1c(NC(=O)Cc2ccccc2)cccc1-c1nc2cccnc2s1`: the survival is inactive: 89%.

In the case of `CCOc1ccc(NC(=O)c2cc3nc(-c4ccc(OC)cc4)cc(C(F)(F)F)n3n2)cc1`, the survival was inactive: 134%.

`Cn1nc(-c2ccccc2F)c2cc(C(=O)N3CCN(c4ccccc4F)CC3)sc21`: the survival is inactive: 40%.

Turning to `COCCCNc1nc2c(-c3cccc(Br)c3)nnn2c2ccccc12`, the survival is inactive: 54%.

Turning to `Cc1c(C(=O)O)oc2c1-c1nn(Cc3ccccc3Cl)cc1CC2`, the survival was inactive: 80%.

For the compound `COc1cc([C@@H]2Nc3c(F)cccc3[C@@H]3C=CC[C@@H]32)cc(Br)c1OC`, the survival is inactive: 55%.

On to `COc1ccc2c(Sc3ccc(C)cc3)c(C(=O)NC(C)c3ccccc3)[nH]c2c1` (stereo not given), for which the survival is inactive: 89%.

With `CCc1ccccc1NC(=O)c1ccc(F)c(S(=O)(=O)N2CCN(c3ccccc3OC)CC2)c1`, the survival was inactive: 89%.

Take `COCCNC(=O)CN1C(=O)CCn2nc(-c3cn(C)c4ccccc34)cc21`: the survival was inactive: 72%.

Turning to `CCOC(=O)N1CCN(CCC(=O)Nc2cccc(F)c2)CC1`, the survival is inactive: 74%.

With `Cc1c(C(=O)NCc2ccc(Cl)cc2)sc2nc3n(c(=O)c12)CCC3`, the survival was inactive: 102%.

For `Cc1ccc(NC(=O)CC(c2ccc(F)cc2)N2Cc3ccccc3C2=O)cc1C` (stereo not given), the survival is inactive: 74%.

For `Cc1cccc(N2C(=O)C(CC(=O)Nc3cccc(F)c3)N(CCc3ccncc3)C2=O)c1` (stereo not given), the survival was inactive: 75%.

Turning to `O=S(=O)(c1ccc(Cl)cc1)c1nc(-c2ccccc2F)oc1NCc1ccccc1`, the survival was inactive: 67%.

With `COc1ccc(NC(=O)C2=CC(c3ccc4c(c3)OCO4)=NS(=O)(=O)N2C)cc1OC`, the survival was inactive: 79%.

Regarding `Cc1ccc(C(=O)N(CC#N)CC#N)cc1`, the survival was inactive: 94%.

As to `Cc1ccc(Sc2ccc(N3CCC(C(=O)Nc4ccc(Cl)cc4)CC3)nn2)cc1`, the survival was inactive: 72%.

As for `Fc1ccccc1CSC1=NCCN1`, the survival was inactive: 98%.

For `CCc1ccc(C(=O)c2cn(CC(=O)NCc3ccc(C)cc3)c3nc(C)ccc3c2=O)cc1`, the survival is inactive: 98%.

Turning to `CCOC(=O)CCNC(=O)N1CCN(S(=O)(=O)c2ccc3c(ccn3C)c2)CC1`, the survival is inactive: 89%.

For the compound `CCc1nn(CC(=O)NCCCc2ccccc2)c(=O)c2cc3cc(F)ccc3n12`, the survival is inactive: 71%.

As for `Cc1ccc(CNC(=O)c2ccc3c(c2)NC(=O)C(CS(=O)(=O)Cc2cccc(F)c2)N3)cc1` (stereo not given), the survival was inactive: 86%.

Consider `CC(=O)c1ccc(NC(=O)c2cc3c(=O)oc4ccc(C)cc4c3s2)cc1`, for which the survival is inactive: 106%.

With `Cc1ccc(N2CCN(C(=O)C3CCN(S(=O)(=O)c4ccc5c(c4)oc(=O)n5C)CC3)CC2C)cc1` (stereo not given), the survival is inactive: 109%.

On to `O=c1c2sc3ccccc3c2n(Cc2cccc(Cl)c2)c(=O)n1Cc1ccco1`, for which the survival was inactive: 101%.

Turning to `CC(=O)c1ccc(NC(=O)CCc2c(C)nn(-c3ccc(N4CCOCC4)nn3)c2C)cc1`, the survival was inactive: 67%.

`Cc1cc(C)c(S(=O)(=O)NCCc2cc3ccc(C)c(C)c3[nH]c2=O)c(C)c1`: the survival is inactive: 82%.

Turning to `COc1ccc(-c2noc(-c3ccc(NCc4cccnc4)c([N+](=O)[O-])c3)n2)cc1OC`, the survival is inactive: 105%.

Regarding `Cc1ccccc1OCCn1c(=N)n(C(C)C)c2ccccc21`, the survival was inactive: 68%.

Consider `Cc1cc(NC(=O)c2cc(-c3cccc(Cl)c3)on2)n(-c2ccccc2)n1`, for which the survival is inactive: 91%.

Consider `CCOc1ccc(C2=CC(c3cccc(Br)c3)n3c(nc4ccccc43)N2)cc1Cl` (stereo not given), for which the survival is inactive: 109%.

For `Cc1cc(C)cc(-n2c(C)nc3cc(C(=O)O)ccc32)c1`, the survival is inactive: 62%.

In the case of `CCOc1ccccc1NC(=O)c1cnccn1`, the survival is inactive: 78%.

As for `CC(C)CC(=O)Nc1nnc(S(=O)(=O)N(CC(C)C)c2ccccc2)s1`, the survival was inactive: 111%.

As for `Cc1cc2oc(C(=O)Nc3ccc(S(=O)(=O)N(C)Cc4ccccc4)cc3)cc(=O)c2cc1C`, the survival is inactive: 49%.

Consider `Cc1ccc(CNC(=O)CCC(=O)N2CC3CCCN3c3ccccc32)cc1` (stereo not given), for which the survival was inactive: 83%.

Take `O=C(Nc1ccc2oc(-c3cc(Br)ccc3Cl)nc2c1)c1cc2ccccc2o1`: the survival is inactive: 107%.

Regarding `COc1cc(-c2cc3n(C)c(C)c(CCC(=O)O)c(=O)n3n2)cc(OC)c1OC`, the survival is inactive: 94%.

As to `CCOc1ccc(NC(=O)C2CCN(C(=O)N3CC(C)Oc4ccc(Cl)cc43)CC2)cc1` (stereo not given), the survival is inactive: 100%.

Take `C/C=N/N(C)c1cc(=O)n(C)c(=O)[nH]1`: the survival is inactive: 89%.

Consider `COc1ccccc1OCCSc1nc(-c2ccc(C(C)(C)C)cc2)nc2cc(=O)[nH]n12`, for which the survival was inactive: 49%.

On to `Cc1ccc(CNC(=O)Cn2cc(S(=O)(=O)Cc3ccccc3Cl)c3ccccc32)cc1`, for which the survival is inactive: 69%.

For the compound `CCOc1ccc(NC(=O)C(CC)n2c(=O)c(-c3ccccc3NC(C)=O)nc3ccccc32)cc1` (stereo not given), the survival was inactive: 72%.

(Values after PubChem BioAssay AID463173 (ICCB-Longwood Screening Facility, Harvard Medical School, 2010).)
